The assay in a line: HPDE-C7 pancreatic duct cell viability loss – fluorescence, HTS (AID 430). The format is functional, cell-based. As to conditions: Homo sapiens.

SMILES strings stand for the structures. Where a name gives a salt, the structure may show the parent alone. Active and inactive are the calls of the source. No stated cut-off is given here; in the data, actives have a measured EC50 and inactives only a lower limit.

Drawing on ChEMBL document CHEMBL1201862, “PubChem BioAssay data set” (2004), this text covers EC50 for 1 molecule.

One may read the EC50 as the concentration at which the effect is half-maximal. With `CCCCc1oc2ccccc2c1C(=O)c1cc(I)c(OCCN(CC)CC)c(I)c1` [AMIODARONE HYDROCHLORIDE], the EC50 is active: 6.53 µM.
